Measurements published in PubChem BioAssay AID1468 (National Center for Advancing Translational Sciences (NCATS), 2008).
The whole screen tested about 280,000 compounds, of which about 1,100 (0.39%) were called active. The inconclusive results got no clear call from the source; some entries with a clear call stand among them for comparison. Calls come from the whole dose curve; as a rule, active = well fitted inhibition curve with a large enough effect; inconclusive = small, poorly fitted or top-dose-only effect, or effect the other way; inactive = flat fitted curve, though single readings scatter. Potencies of inconclusive entries are left out as doubtful fits.

The compounds below were run against Microtubule-associated protein tau (Homo sapiens) (UniProt P10636) (assay: qHTS for Inhibitors of Tau Fibril Formation, Fluorescence Polarization). Details: K18 P301L tau heparin fibrillization, Alexa594 FP, 6 h; series mostly up to 57.7 µM; activity, negative = inhibition: at the top concentration.
In short: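 Steps: dispense K18 P301L tau (15 uM plus 0.24 uM Alexa 594 tracer, final) in pH 7 sodium acetate; add compound; add heparin (20 uM final); incubate 6 hr, 37 C; add ThT (30 uM final); after 1 hr ambient, read FP.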
% is set by controls: 0 for no effect and ±100 for the full control effect; potency is the fitted concentration of half-maximal effect; tags give direction and shape of the fitted curve.
Note: nearly all actives have a fitted effect of over 55% in size.

UniProt P10636, sequence (P10636 whole entry, looked up): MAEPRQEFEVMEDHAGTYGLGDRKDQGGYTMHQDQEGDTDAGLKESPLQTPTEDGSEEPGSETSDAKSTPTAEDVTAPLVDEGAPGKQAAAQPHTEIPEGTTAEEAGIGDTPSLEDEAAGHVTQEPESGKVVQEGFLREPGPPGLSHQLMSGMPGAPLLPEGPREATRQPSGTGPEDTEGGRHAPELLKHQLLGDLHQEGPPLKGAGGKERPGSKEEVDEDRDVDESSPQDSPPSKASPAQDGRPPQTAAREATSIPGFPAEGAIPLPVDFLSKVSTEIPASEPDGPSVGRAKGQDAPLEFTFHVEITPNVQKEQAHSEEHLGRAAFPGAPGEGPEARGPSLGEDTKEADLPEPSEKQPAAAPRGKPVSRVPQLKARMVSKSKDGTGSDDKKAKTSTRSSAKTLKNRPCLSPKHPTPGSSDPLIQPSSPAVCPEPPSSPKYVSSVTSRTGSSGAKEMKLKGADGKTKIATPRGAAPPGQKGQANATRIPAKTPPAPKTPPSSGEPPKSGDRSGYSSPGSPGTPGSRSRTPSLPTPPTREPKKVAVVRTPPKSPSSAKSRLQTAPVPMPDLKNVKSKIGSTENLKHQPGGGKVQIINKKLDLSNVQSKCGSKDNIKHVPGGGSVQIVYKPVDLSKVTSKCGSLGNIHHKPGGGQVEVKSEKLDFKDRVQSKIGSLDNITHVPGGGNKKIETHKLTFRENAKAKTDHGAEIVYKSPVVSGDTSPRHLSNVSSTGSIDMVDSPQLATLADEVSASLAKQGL

Row | SMILES | activity, negative = inhibition | Potency
1 | COc1ccc(CN2CCNC(=O)C2CC(=O)O)c(OC)c1 (stereo unspecified) | inactive: -4.74% | 
2 | CCc1ccc(N2CCn3c2nc2c3c(=O)n(CCCc3ccccc3)c(=O)n2C)cc1 |  | inconclusive [inhibitor, full curve, poor fit]
3 | CC1C/C(=C\c2cccnc2)C(=O)/C(=C/c2cccnc2)C1 (stereo unspecified) |  | inconclusive [inhibitor, partial curve]
4 | Cc1ccc(S(=O)(=O)/C(C#N)=C/c2c(N3CCOCC3)nc3ccccn3c2=O)cc1 | inactive: -8.35% | 
5 | CCC(=O)Nc1cccc(-c2nc3ccccc3o2)c1 | inactive: -4.23% | 
6 | FC(F)(F)c1nnc2c(Sc3ccccn3)nc3ccccc3n12 |  | inconclusive [inhibitor, partial curve, poor fit]
7 | Cc1ccc(-n2c(-c3ccco3)nc3c(cnn3-c3ccc(C)cc3)c2=O)cc1 |  | inconclusive [inhibitor, partial curve, poor fit]
8 | Cc1ccc(S(=O)(=O)n2nc(OC(=O)c3c(-c4ccccc4Cl)noc3C)cc2N)cc1 | inactive: -14.6% | 
9 | CCSc1nnc2n(-c3ccc(OC)cc3)c(=O)c3c4c(sc3n12)CCCC4 |  | inconclusive [activator, full curve, poor fit]
10 | O=C(NCCCCc1ccccc1)c1nn(-c2ccccc2)nc1CO | inactive: -0.493% | 
11 | COc1ccc(NC(=O)Cn2nnc(C(=O)Nc3ccc(C)c(F)c3)c2N)cc1Cl |  | inconclusive [inhibitor, partial curve]
12 | O=C(Cc1cccc2ccccc12)NC(NC(=S)Nc1ccccc1Cl)C(Cl)(Cl)Cl (stereo unspecified) |  | inconclusive [inhibitor, partial curve]
13 | Cc1cc(N/N=C/c2cccc(Cl)c2)nc(NCc2ccccc2)n1 |  | inconclusive [inhibitor, single point]
14 | Cc1ccc(Nc2c(-c3ccc(N4CCOCC4)cc3)nc3ncccn23)cc1C |  | inconclusive [activator, partial curve]
15 | Cn1c(SCC(=O)c2ccccc2)nnc1-c1ccncc1 |  | inconclusive [inhibitor, single point]
16 | COc1ccc(NC(=O)c2c[nH]n3c(=O)cc(C4CCN(C(=O)OC(C)(C)C)CC4)nc23)cc1Cl | inactive: -3.8% | 
17 | CCCN(CCC)CCCNC(=O)c1cn(CC)c2ccc(S(=O)(=O)N3CCc4ccccc4C3)cc2c1=O |  | inconclusive [inhibitor, full curve, poor fit]
18 | CCOC(=O)c1cnc2c(C)cccc2c1Nc1ccc(N2CCOCC2)cc1 |  | inconclusive [inhibitor, single point]
19 | O=C(CSc1oc(-c2ccco2)nc1S(=O)(=O)c1ccccc1)c1ccc(Cl)cc1 |  | inconclusive [inhibitor, partial curve]
20 | CCOC(=O)c1oc2ccc(S(=O)(=O)n3nc(-c4cc(OCC)c(OCC)c(OCC)c4)cc3N)cc2c1C |  | inconclusive [inhibitor, partial curve]
21 | CCOC(=O)c1c(C)c(C)n(Cc2cccc(OC)c2OC)c1C |  | inconclusive [inhibitor, single point]

Row | SMILES | activity, negative = inhibition | Potency
22 | CCOc1cccc(C(=O)NC(=S)Nc2ccc3c(c2)OCCO3)c1 |  | inconclusive [inhibitor, partial curve]
23 | CN(CCCNC(=O)c1cn(C)c2ccc(S(=O)(=O)N(C)C)cc2c1=O)c1ccccc1 |  | inconclusive [activator, partial curve, poor fit]
24 | COC(=O)c1ccccc1Nc1ccccc1 |  | inconclusive [inhibitor, single point]
25 | COc1ccc(NC(=O)C2(c3ccc(NC(=O)c4ccc(OC)cc4)cc3)CCCC2)cc1 |  | inconclusive [inhibitor, partial curve, poor fit]
26 | CCN(Cc1ccccc1)c1ccc(N=Nc2nn(C)c(C)c2[N+](=O)[O-])cc1 |  | inconclusive [activator, full curve]
27 | N#C/C(=C\c1ccc(-c2ccc([N+](=O)[O-])cc2Br)o1)C(=O)N1CCN(c2ccccc2)CC1 | inactive: 15.7% | 
28 | c1cncc(CNc2nc(-c3ccoc3)nc3ccccc23)c1 |  | inconclusive [inhibitor, single point]
29 | Cc1ccc(OCC(=O)Nc2ccc(S(=O)(=O)N(Cc3ccccc3)c3ccccc3)cc2)cc1 |  | inconclusive [inhibitor, partial curve, poor fit]
30 | CC/C(=N\NC(=O)c1c[nH]c2ccccc12)c1cccs1 | inactive: -6.3% | 
31 | Cc1sc2nc3c4ccccc4c(NCc4ccco4)nn3c(=O)c2c1C |  | active: 35.5 µM
32 | COc1ccccc1NS(=O)(=O)c1cccc(C(=O)NN=C2CCCC2)c1 | inactive: -1.14% | 
33 | COc1ccc(C(=O)CC(Nc2ccc([N+](=O)[O-])cc2)c2ccc(Cl)cc2)cc1 (stereo unspecified) |  | inconclusive [inhibitor, partial curve]
34 | COc1ccc(N2C(=O)[C@@H]3[C@H](C2=O)[C@H]2c4ccccc4C=CN2[C@@H]3C(C)=O)cc1 |  | inconclusive [inhibitor, single point]
35 | O=C(CCNC(=O)Cn1cnc2ccccc2c1=O)NCCC1=CCCCC1 | inactive: -2.2% | 
36 | NC(Cc1ccc(Cl)cc1)C(=O)O (stereo unspecified) |  | inactive
37 | COc1cc2c(-c3ccccc3Cl)nc3c(c(C)nn3-c3ccccc3)c2cc1OC |  | inconclusive [inhibitor, partial curve]
38 | CCOC(=O)c1c(-c2ccc(OC)c(OC)c2)csc1NC(=O)c1ccc(F)cc1 |  | inconclusive [inhibitor, partial curve, poor fit]
39 | Cc1ccc(S(=O)(=O)CCc2nnc(NC(=O)COc3cccc(C)c3)s2)cc1 |  | inconclusive [inhibitor, single point]
40 | COc1ccc(Nc2c3c(c(C#N)c4nc5ccccc5n24)CCC3)cc1 | inactive: -2.24% | 
41 | Cc1ccc(-n2c(=O)c3ccccc3n(CC(=O)Nc3cccc(C(F)(F)F)c3)c2=O)cc1 |  | inconclusive [inhibitor, partial curve]
